Hit rate of the full screen: of about 350,000 compounds, about 31,000 (8.9%) were called active. The shares of active, inactive and inconclusive entries below differ from those in the screen. Calls come from the whole dose curve; as a rule, active = well fitted inhibition curve with a large enough effect; inconclusive = small, poorly fitted or top-dose-only effect; inactive = no such curve, though single readings can be large or run the other way. Potencies of inconclusive entries are doubtful fits and often do not repeat.
Target: Histone-lysine N-methyltransferase EHMT2 (Homo sapiens) (UniProt Q96KQ7)
Sequence of UniProt Q96KQ7 (Q96KQ7 whole entry, looked up): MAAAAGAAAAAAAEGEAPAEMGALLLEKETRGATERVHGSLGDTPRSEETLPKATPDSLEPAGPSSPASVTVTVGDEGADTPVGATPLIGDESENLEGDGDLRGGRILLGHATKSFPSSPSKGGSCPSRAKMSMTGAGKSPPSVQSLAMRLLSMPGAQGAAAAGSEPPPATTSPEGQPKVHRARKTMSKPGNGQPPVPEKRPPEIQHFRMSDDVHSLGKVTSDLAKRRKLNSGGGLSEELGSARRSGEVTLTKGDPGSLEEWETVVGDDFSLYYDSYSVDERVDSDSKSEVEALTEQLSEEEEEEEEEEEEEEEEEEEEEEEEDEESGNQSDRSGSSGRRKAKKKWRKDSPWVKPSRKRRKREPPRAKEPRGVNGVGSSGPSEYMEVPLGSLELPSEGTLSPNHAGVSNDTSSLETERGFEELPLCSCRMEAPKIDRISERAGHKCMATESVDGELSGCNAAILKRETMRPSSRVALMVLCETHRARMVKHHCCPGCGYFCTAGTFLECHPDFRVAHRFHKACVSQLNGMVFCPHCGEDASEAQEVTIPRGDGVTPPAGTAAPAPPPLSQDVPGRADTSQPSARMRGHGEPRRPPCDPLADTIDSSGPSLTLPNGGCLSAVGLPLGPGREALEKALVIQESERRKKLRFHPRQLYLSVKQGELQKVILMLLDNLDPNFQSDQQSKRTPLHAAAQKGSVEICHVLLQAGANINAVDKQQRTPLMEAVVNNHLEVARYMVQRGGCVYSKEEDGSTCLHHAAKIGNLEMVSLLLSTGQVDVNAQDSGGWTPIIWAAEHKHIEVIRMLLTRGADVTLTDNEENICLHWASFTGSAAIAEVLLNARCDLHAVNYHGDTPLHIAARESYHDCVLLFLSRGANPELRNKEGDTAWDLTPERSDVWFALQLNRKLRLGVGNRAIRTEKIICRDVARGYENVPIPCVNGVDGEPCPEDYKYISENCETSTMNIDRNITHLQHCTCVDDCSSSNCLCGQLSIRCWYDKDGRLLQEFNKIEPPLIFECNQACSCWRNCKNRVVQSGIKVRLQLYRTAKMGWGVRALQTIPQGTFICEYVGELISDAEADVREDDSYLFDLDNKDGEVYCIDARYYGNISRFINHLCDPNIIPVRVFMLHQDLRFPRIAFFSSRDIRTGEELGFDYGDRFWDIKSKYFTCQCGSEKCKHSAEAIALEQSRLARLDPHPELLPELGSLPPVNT
Test: qHTS Assay for Inhibitors of Histone Lysine Methyltransferase G9a; note: nearly all actives have a fitted effect of over 75% in size
Details: G9a H3K9 monomethylation, AlphaScreen, 2 h; activity, negative = inhibition: at 59 µM (top of the series) unless noted
In short: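 Readings reflect AlphaScreen signal from monomethyl-H3K9 antibody detection. HMT at 20 nM; substrate b-H3K9 500 nM; cofactor SAM 20 uM; 2 h RT reaction; compounds tested as titrations in qHTS with 15 min preincubation.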
% is set by controls: 0 for no effect and ±100 for the full control effect; potency is the fitted concentration of half-maximal effect; tags give direction and shape of the fitted curve.

Structure (SMILES)	Potency	activity, negative = inhibition
COc1ccc(C(=O)Nc2nnc(S(=O)(=O)N3CCN(c4ccc(F)cc4)CC3)s2)cc1	inconclusive: 28.2 µM [inhibitor, partial curve, poor fit]	–
CC(C)CC(=O)NC(=S)Nc1ccccc1C(=O)Nc1ccccc1	inconclusive: 3.98 µM [inhibitor, single point]	–
COc1ccc(-c2oc(/N=C/N3CCOCC3)c(C#N)c2-c2ccc(OC)cc2)cc1	inconclusive: 39.8 µM [inhibitor, single point]	–
CCOc1ccc(NC(=O)CC2C(=O)N(c3ccccc3)C(=O)N2CCOC)cc1 (stereo not given)	–	inconclusive: -54% [inhibitor] [at 102 µM]
Cc1ccc(O)c(N=Cc2cc(Cc3ccccc3)cc([N+](=O)[O-])c2O)c1	–	inconclusive: -90.4% [inhibitor]
O=C(COC(=O)c1cccc(S(=O)(=O)N2CCc3ccccc3C2)c1)NCc1ccco1	inconclusive: 2.24 µM [inhibitor, single point]	–
COc1ccc(N2CCN(C(=O)c3c(-c4ccccc4)noc3C)CC2)cc1	inconclusive: 35.5 µM [inhibitor, single point]	–
Fc1ccc(-c2nc3ccccn3c2NCc2ccc3c(c2)OCO3)cc1	inconclusive: 44.7 µM [inhibitor, partial curve, poor fit]	–
CCOP(=O)(c1c(F)c(F)c(F)c(F)c1F)C(O)c1ccccc1 (stereo not given)	inconclusive: 70.8 µM [inhibitor, partial curve, poor fit]	–
COc1cc(C(=O)Oc2c(CN3CCOCC3)cc(Cl)c3cccnc23)cc(OC)c1OC	inactive	–
CC(NC(=O)Cn1cccc1C(=O)c1ccccc1)c1ccc2c(c1)OCCO2 (stereo not given)	inactive	–
CC1(C)CC(N=c2cc(-c3ccccc3)oc3ccc(Cl)cc23)CC(C)(C)N1	active: 70.8 µM	–
C#CCOc1ccc(Cl)cc1/C=C1/C(=O)ON=C1C	active: 31.6 µM	–
Cc1ccc(C(=O)NC2CCCc3ccccc32)o1 (stereo not given)	–	inconclusive: -64.1% [inhibitor]
O=C(c1ccc(F)cc1)c1ccc(N2CCCCC2)cc1	inactive	–
CCOc1ccc2noc3c2c1C(=O)c1ccccc1-3	–	inconclusive: -78.1% [inhibitor] [at 12.7 µM]
Clc1cccc(-c2nc3nc4ccccc4nc3n2Cc2ccco2)c1	–	inconclusive: -62.3% [inhibitor]
CC1CCC(NC(=O)CN2C(=O)C3CCCN3c3ncc(Cl)cc32)CC1 (stereo not given)	–	inconclusive: -99.3% [inhibitor]
CCCc1cc(=O)oc2c(C)c3c(cc12)CN(CCc1ccc(Cl)cc1)CO3	inactive	–
CCC(C)NC(=O)Cn1c(=O)n(-c2ccc(OC)c(OC)c2)c(=O)c2ccccc21 (stereo not given)	inactive	–
CCOC(=O)C1CCN(C(=O)c2c(C)nn(-c3ccc(F)cc3)c2-n2cccc2)CC1	inconclusive: 3.55 µM [inhibitor, partial curve, poor fit]	–
O=C(CNC(=O)c1ccc2c(c1)OCCO2)N/N=C/c1cccc(Br)c1	inconclusive: 89.1 µM [inhibitor, single point]	–
Cc1c(Cl)cccc1-c1ccc(/C=N/n2cnnc2)o1	inconclusive: 79.4 µM [inhibitor, single point]	–
Cc1cc(C)n2nc(C(=O)N(C)c3c(N)n(Cc4ccccc4)c(=O)[nH]c3=O)nc2n1	inconclusive: 50.1 µM [inhibitor, partial curve]	–

Structure (SMILES)	Potency	activity, negative = inhibition
COc1cccc(Nc2nc3ccccc3nc2NS(=O)(=O)c2cccs2)c1	–	inactive: 1.7% [at 12.7 µM]
O=[N+]([O-])c1ccc(-c2nn(-c3ccccc3)cc2/C=N/n2c(-c3ccncc3)n[nH]c2=S)cc1	inconclusive: 5.01 µM [inhibitor, partial curve, poor fit]	–
COc1ccc(NS(=O)(=O)c2ccc3nc(COc4ccc(Cl)c(C)c4)[nH]c3c2)cc1	active: 44.7 µM	–
COc1ccc(Cl)cc1Nc1nc(-c2sc(NC(=O)CC(C)C)nc2C)cs1	inconclusive: 22.4 µM [inhibitor, single point]	–
CCOC(=O)c1c(NC(=O)Cn2cnc([N+](=O)[O-])n2)sc2c1CCC(C)C2 (stereo not given)	–	inactive: 3.18% [at 0.501 µM]
CCN(CC)S(=O)(=O)c1cccc(N=NC2=C(O)CCCC2=O)c1	inconclusive: 15.8 µM [inhibitor, single point]	–
CC(C)n1cnc2c(Nc3cccc(Cl)c3)nc(NCCCO)nc21	–	inconclusive: -61.6% [inhibitor]
CC(NC(=O)CN(C)CC(=O)Nc1ccc(F)c(F)c1F)c1ccccc1 (stereo not given)	inconclusive: 89.1 µM [inhibitor, single point]	–
O=C(Nc1ccc2c(c1)OCCO2)N1CCN(c2ccccc2)CC1	inconclusive: 89.1 µM [inhibitor, single point]	–
COc1ccc(C(C)=O)cc1COC(=O)c1cc(C)oc1C	inconclusive: 89.1 µM [inhibitor, single point]	–
CC(=O)Nc1ccc(C2(c3ccc(NC(C)=O)cc3)C(=O)Nc3ccccc32)cc1	inconclusive: 50.1 µM [inhibitor, partial curve, poor fit]	–
CCc1cc(=O)[nH]c(SCc2nc(-c3cccc(Cl)c3)no2)n1	inconclusive: 39.8 µM [inhibitor, single point]	–
COc1cc2ncnc(NCc3cccc(F)c3F)c2cc1OC	active: 44.7 µM	–
Oc1ccc(N2CCN(C(c3cccs3)c3nnnn3CCc3ccccc3)CC2)cc1 (stereo not given)	–	inconclusive: -138% [inhibitor]
Clc1ccc(CN2CCSCC2)c(Cl)c1	active: 10 µM	–
CC(NC(=O)C(C)N1C(=O)c2cccc([N+](=O)[O-])c2C1=O)c1ccccc1 (stereo not given)	inconclusive: 0.316 µM [inhibitor, partial curve, poor fit]	–
COc1ccc(/C=C/C(=O)NC(=S)NNC(=O)c2cccs2)cc1OC	–	inconclusive: -101% [inhibitor]
O=C1CN(C(=O)C2CC2)c2ccccc2N1	inconclusive: 89.1 µM [inhibitor, single point]	–
O=C(CCl)N1N=C(c2cccs2)CC1c1ccco1 (stereo not given)	inconclusive: 50.1 µM [inhibitor, partial curve, poor fit]	–
O=S(=O)(c1ccc(-c2csc(=Nc3ccc(F)cc3)n2CCCCCCO)cc1)N1CCCC1	active: 12.6 µM	–
O=C(Cc1ccccc1)NNC(=S)Nc1ccccc1	inconclusive: 20 µM [inhibitor, partial curve, poor fit]	–
CC(C)OC(=O)C(C#N)c1nc2ccccc2nc1N1CCN(Cc2ccccc2)CC1 (stereo not given)	inactive	–
COC(=O)c1ccc(C2C(C#N)=C(N)Oc3cc(C)n(C)c(=O)c32)cc1 (stereo not given)	–	inactive: -23.4% [at 12.7 µM]
CC(Sc1nnc(-c2cccs2)n1-c1ccccc1)C(=O)NCc1ccco1 (stereo not given)	inactive	–

Structure (SMILES)	Potency	activity, negative = inhibition
C#CCCCCCCCCCCCCCCCC(=O)O	inconclusive: 0.1 µM [inhibitor, partial curve, poor fit]	–
Cc1ccc(C)c(/C=N/Nc2nc3ccccc3c(=O)n2O)c1	active: 28.2 µM	–
CCN(CC)CCN(CC)Cc1ccccc1Br	active: 50.1 µM	–
Cc1ccc(NC(=O)COC(=O)c2ccc([N+](=O)[O-])o2)cc1S(=O)(=O)N1CCCCC1	inconclusive: 50.1 µM [inhibitor, partial curve, poor fit]	–
CC1CCC2(CC1)NC(=O)N(NC(=O)c1ccc(OC(C)C)cc1)C2=O (stereo not given)	inactive	–
Cc1ccc(NC(=S)Nc2ccccn2)c(C)c1	inconclusive: 22.4 µM [inhibitor, single point]	–
COC(=O)c1ccccc1NC(=O)CC(=O)Nc1ccccc1C(=O)OC	–	inactive: 4.33% [at 2.33 µM]
CN1CCN(C(c2ccc(C(F)(F)F)cc2)c2ccc3cccnc3c2O)CC1 (stereo not given)	active: 7.94 µM	–
CCOC(=O)C1CCN(C(=O)c2cc3cc(Cl)ccc3[nH]2)CC1	inconclusive: 89.1 µM [inhibitor, single point]	–
Cn1c(C(=O)NCCc2ccccc2)cc2sc(Cl)cc21	inactive	–
NS(=O)(=O)c1ccc(NC(=O)COC(=O)CCNC(=O)NC23CC4CC(CC(C4)C2)C3)cc1	inconclusive: 50.1 µM [inhibitor, partial curve]	–
C[C@@H](C(=O)Nc1nc(-c2ccccn2)cs1)N1C(=O)C2CCCCC2C1=O (stereo not given in full)	active: 1.41 µM	–
O=[N+]([O-])c1ccc(NC(=S)N2CCN(c3ccccc3)CC2)cc1	inconclusive: 28.2 µM [inhibitor, single point]	–
Cc1ccccc1OCCCN1CCCC1	active: 39.8 µM	–
COc1ccc(-n2cc(-c3ccccc3)c3c(=S)nc[nH]c32)cc1	inactive	–
CCOc1ccc(CNC(=O)CN2N=C(c3ccccc3)CCC2=O)cc1OC	inactive	–
COc1ccc(C=O)cc1Cn1c(=O)n(CCC(=O)NCc2ccco2)c(=O)c2sccc21	inconclusive: 50.1 µM [inhibitor, partial curve, poor fit]	–
CCOc1ccc(C2C(C#N)=C(C)NC3=C2C(=O)c2ccccc23)cc1 (stereo not given)	inconclusive: 7.94 µM [inhibitor, partial curve, poor fit]	–
O=C(N/N=C\c1ccc[nH]1)C1COc2ccccc2O1 (stereo not given)	inactive	–
O=C(Nc1nc(-c2ccco2)c(-c2ccco2)s1)C1CCC1	inconclusive: 25.1 µM [inhibitor, single point]	–
O=C(/C=C/c1ccncc1)c1ccc2c(c1)OCCO2	active: 50.1 µM	–
CCOc1ccc(Nc2nc(C)c(NC(=O)c3cccc(F)c3)c(Nc3ccc(OCC)cc3)n2)cc1	active: 20 µM	–
